Source: publication PMC4336329 (PLoS ONE, 2015)
Out of some 310,000 compounds screened, about 14,000 (4.5%) showed an effect of 50% or more. The effect is printed as a negative number. The list shows a part of the results.

The molecules below were run against human ether-à-go-go-related gene (hERG) potassium channel (human, UniProt Q12809) (assay: primary screen, population patch clamp on CHO cells stably expressing hERG).
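Further: peak tail current of the secondary pulse compared with the same well before compound.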

Chain of human ether-à-go-go-related gene (hERG) potassium channel (Q12809 whole entry, looked up): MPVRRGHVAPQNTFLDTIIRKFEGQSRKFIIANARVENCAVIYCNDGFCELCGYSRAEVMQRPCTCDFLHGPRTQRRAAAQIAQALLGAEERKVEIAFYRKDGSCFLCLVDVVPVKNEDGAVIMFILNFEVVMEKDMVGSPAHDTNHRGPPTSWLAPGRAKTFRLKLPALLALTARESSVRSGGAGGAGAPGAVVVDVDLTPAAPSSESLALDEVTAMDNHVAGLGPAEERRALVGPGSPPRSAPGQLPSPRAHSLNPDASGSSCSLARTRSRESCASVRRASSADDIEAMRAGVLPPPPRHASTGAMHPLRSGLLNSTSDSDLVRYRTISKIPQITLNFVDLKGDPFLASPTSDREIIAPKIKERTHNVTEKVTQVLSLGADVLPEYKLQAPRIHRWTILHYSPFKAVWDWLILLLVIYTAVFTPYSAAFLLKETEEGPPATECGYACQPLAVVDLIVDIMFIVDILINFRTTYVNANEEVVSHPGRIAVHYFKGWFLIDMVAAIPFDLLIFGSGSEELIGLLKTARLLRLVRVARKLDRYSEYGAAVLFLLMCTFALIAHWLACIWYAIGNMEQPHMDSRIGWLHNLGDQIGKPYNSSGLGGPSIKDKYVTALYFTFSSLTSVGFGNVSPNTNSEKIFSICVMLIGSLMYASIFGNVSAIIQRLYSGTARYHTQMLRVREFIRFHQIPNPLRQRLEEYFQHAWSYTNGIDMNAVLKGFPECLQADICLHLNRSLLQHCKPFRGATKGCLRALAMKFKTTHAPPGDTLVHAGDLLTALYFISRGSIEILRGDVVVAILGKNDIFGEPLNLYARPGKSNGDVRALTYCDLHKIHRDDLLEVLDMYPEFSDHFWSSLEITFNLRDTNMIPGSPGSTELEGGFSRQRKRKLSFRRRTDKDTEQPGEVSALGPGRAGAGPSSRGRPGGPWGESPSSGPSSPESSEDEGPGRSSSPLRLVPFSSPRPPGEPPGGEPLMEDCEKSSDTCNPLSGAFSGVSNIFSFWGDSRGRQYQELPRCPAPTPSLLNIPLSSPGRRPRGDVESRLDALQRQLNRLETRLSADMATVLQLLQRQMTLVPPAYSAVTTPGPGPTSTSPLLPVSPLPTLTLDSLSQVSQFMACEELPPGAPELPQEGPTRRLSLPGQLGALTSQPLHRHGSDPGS

Row | SMILES | hERG current change (%, negative = inhibition) at 10uM [%]
1 | C/C(=N\Nc1cc(N2CCOCC2)nc(C)n1)c1cccc([N+](=O)[O-])c1 | -60.4
2 | O=C1c2cccc3c([N+](=O)[O-])ccc(c23)C(=O)N1c1ccc(Cl)cn1 | 0.201
3 | CCn1cc(C(=O)NP(=O)(Nc2ccc(C)cc2)Nc2ccc(C)cc2)c2ccccc21 | 20.3
4 | Cc1cccc(C(=O)Nc2scc(-c3ccc(Br)cc3)c2C(=O)O)c1 | 30.4
5 | Cc1ccc(-c2nc(CS(=O)(=O)CC(=O)NC3CCC(C)CC3)c(C)o2)cc1 (stereo not shown) | 1.25
6 | Cc1ccc(CC(=O)NCCC(=O)O)cc1 | 16.9
7 | O=C(CCNC(=O)c1ccc([N+](=O)[O-])cc1)Nc1ccccc1N1CCCC1 | -34.6
8 | Cc1cccc(NC(=O)CSCC(=O)Nc2ccc(S(=O)(=O)N3CCOCC3)cc2)c1 | -5.21
9 | Cc1ccccc1-c1nc(P(=O)(c2ccccc2)c2ccccc2)c(N2CCOCC2)o1 | -19.5
10 | CCCCNC(=O)N1CCCC(C(=O)c2cc(C)c(OC)c(C)c2)C1 (stereo not shown) | -0.274
11 | COc1cc(-c2nc(CN(C)Cc3nnc(C)o3)c(C)o2)ccc1F | -8.17
12 | Cc1onc(-c2ccccc2Cl)c1C(=O)NCC(=O)O | -3.33
13 | O=C1COc2ccc(-c3n[nH]c(=O)c4ccccc34)cc2N1 | -2.91
14 | O=c1[nH]ccc2c(O)cccc12 | 20.1
15 | C=CCNCCCCOc1ccc(OCC)cc1.O=C(O)C(=O)O | -17.4
16 | CC(C)CC(C(=O)O)N1C(=O)[C@@H]2[C@H](C1=O)[C@@H]1C[C@H]2C(Br)C1Br (stereo partly shown) | -0.62
17 | CC(C)N1C(=O)C2ON(c3ccccc3)C(c3cccs3)C2C1=O (stereo not shown) | -16.6
18 | CC(/C=N/NC(=O)c1cccnc1)=C\c1ccco1 | 14.6
19 | CCN1CCN(Cc2ccccc2C)CC1 | 10.1
20 | Cc1cccc(C(=O)OCC(=O)NC(C)CCc2ccccc2)c1 (stereo not shown) | 12.8
21 | CCOc1ccc(N(CC(=O)NCC2CCCO2)S(=O)(=O)c2ccc(C)cc2)cc1 (stereo not shown) | -10.3
22 | O=C(CN1C(=O)c2ccccc2S1(=O)=O)NCCC1=CCCCC1 | -2.21
23 | Br.CC(C)Cc1ccc(C2=CSC3=NCCN23)cc1 | -70.5
24 | CC(C)C(=O)NC(c1ccc(N(C)C)cc1)c1c(O)ccc2ccccc12 (stereo not shown) | 11.2
25 | COc1ccccc1/C(O)=C(\C#N)c1nc2ccccc2[nH]1 | 15
